These results are taken from PubChem BioAssay AID2060508 (Molecular Pharmacology Branch, DTP, NCI, 2025).

This experiment has as its system 454973-116-R2-J3-PDC spheroids, viability, % test/control. Briefly: Anticancer human tumor 454973-116-R2-J3-PDC patient-derived pancreatic carcinoma cell line growth inhibition [GQUAD]. To be noted: spheroids with HUVEC and MSC. The source says: DNA G-quadruplex Stabilizer Agents in Combinations in Complex Spheroids
A high-throughput screen of multi-cell type tumor spheroids was designed to identify active combinations of DNA G-quadruplex stabilizer agents and targeted small molecules. Complex spheroids include a stromal component modeled by human endothelial cells (HUVEC) and fibroblasts modeled by human mesenchymal stem cells (MSCs). The concentration ranges selected for each drug and investigational agent were based upon clinically achievable concentrations if the clinical Cmax of the agent was known.
Compounds. […] If the clinical Cmax for an agent had not been determined, the highest concentration tested was 10 microM. […]

Not every entry of the source has a single result; some have several. This list holds those alone. There may be further records. The values listed for one entry are repeats (runs, samples, wells, individuals or studies).

The term viability, T/C denotes the result in the treated group divided by that in the control group, in per cent. Broadly, the IC50 is the concentration that inhibits the measured activity by half.
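Also: spheroids exposed to compounds for seven days.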
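For viability, T/C in this document: 100% = DMSO vehicle control viability.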

As to `Cc1cnc(CNC(=O)c2c(=O)c3ccc(N4CCCN(C)CC4)nc3n3c2sc2ccccc23)cn1`, the viability, T/C (compound alone 10 µM, stronger effect = lower value) is given as 38.7, 50.6, 24.2, 49.7, 0.72, 31.4, 35.6, 0.32, 10.3, 26.8, 33.5, 0.2%. For the setting “compound alone, run of 04/16/2024”, the half-inhibitory concentration (IC50) is recorded as 6.43 µM, > 10 µM, 4.5 µM, 3.83 µM, 3.12 µM, 4.16 µM, 3.48 µM, 4.45 µM, 4.1 µM, 4.66 µM, 3.77 µM.
